Measurements published in the supplement of paper PMC8728848.
Some of the results follow.

Assays:
Test in all cases: glycan array binding signal (z-score within array); higher = stronger binding
Settings in all cases: glycan notation: IUPAC condensed, linker removed
[1] = target: Neu5Ac(a2-3)[Neu5Ac(a2-6)]GalNAc
Procedure, shortened: (§1)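 Columns mapping to the same glycan were averaged after glycan names were converted to IUPAC-condensed notation. The data come from 3228 arrays in the Consortium for Functional Glycomics database, limited to those with an available protein sequence. Binding is reported as a within-array Z-score averaged across arrays of one protein sequence and across linkers.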

[2] = target: Neu5Ac(a2-6)Gal
Procedure, shortened: as §1

[3] = target: Neu5Ac(a2-6)Gal(b1-4)Glc
Procedure, shortened: as §1

[4] = target: Neu5Ac(a2-6)Gal(b1-4)GlcNAc
Procedure, shortened: as §1

[5] = target: Neu5Ac(a2-6)Gal(b1-4)GlcNAc(b1-2)Man(a1-3)[Gal(b1-4)GlcNAc(b1-2)Man(a1-6)]Man(b1-4)GlcNAc(b1-4)GlcNAc
Procedure, shortened: as §1

[6] = target: Neu5Ac(a2-6)Gal(b1-4)GlcNAc(b1-2)Man(a1-3)[GlcNAc(b1-2)Man(a1-6)]Man(b1-4)GlcNAc(b1-4)GlcNAc
Procedure, shortened: as §1

[7] = target: Neu5Ac(a2-6)Gal(b1-4)GlcNAc(b1-2)Man(a1-3)[GlcNAc(b1-2)Man(b1-4)GlcNAc(b1-2)Man(a1-6)]Man(b1-4)GlcNAc(b1-4)GlcNAc
Procedure, shortened: as §1

[8] = target: Neu5Ac(a2-6)Gal(b1-4)GlcNAc(b1-2)Man(a1-3)[Neu5Ac(a2-6)Gal(b1-4)GlcNAc(b1-2)Man(a1-6)]Man(b1-4)GlcNAc(b1-4)GlcNAc
Procedure, shortened: as §1

[9] = target: Neu5Ac(a2-6)Gal(b1-4)GlcNAc(b1-2)Man(a1-6)[Gal(b1-4)GlcNAc(b1-2)Man(a1-3)]Man(b1-4)GlcNAc(b1-4)GlcNAc
Procedure, shortened: as §1

[10] = target: Neu5Ac(a2-6)Gal(b1-4)GlcNAc(b1-2)Man(a1-6)[GlcNAc(b1-2)Man(a1-3)]Man(b1-4)GlcNAc(b1-4)GlcNAc
Procedure, shortened: as §1

[11] = target: Neu5Ac(a2-6)Gal(b1-4)GlcNAc(b1-3)Gal(b1-4)GlcNAc
Procedure, shortened: as §1

[12] = target: Neu5Ac(a2-6)Gal(b1-4)GlcNAc(b1-3)Gal(b1-4)[Fuc(a1-3)]GlcNAc(b1-3)Gal(b1-4)[Fuc(a1-3)]GlcNAc
Procedure, shortened: as §1

[13] = target: Neu5Ac(a2-6)Gal(b1-4)GlcNAc6S
Procedure, shortened: as §1

[14] = target: Neu5Ac(a2-6)GalNAc
Procedure, shortened: as §1

[15] = target: Neu5Ac(a2-6)GalNAc(b1-4)GlcNAc
Procedure, shortened: as §1

[16] = target: Neu5Ac(a2-8)Neu5Ac
Procedure, shortened: as §1

[17] = target: Neu5Ac(a2-8)Neu5Ac(a2-3)Gal(b1-4)Glc
Procedure, shortened: as §1

[18] = target: Neu5Ac(a2-8)Neu5Ac(a2-3)[GalNAc(b1-4)]Gal(b1-4)Glc
Procedure, shortened: as §1

[19] = target: Neu5Ac(a2-8)Neu5Ac(a2-8)Neu5Ac
Procedure, shortened: as §1

[20] = target: Neu5Ac(a2-8)Neu5Ac(a2-8)Neu5Ac(a2-3)Gal(b1-4)Glc
Procedure, shortened: as §1

[21] = target: Neu5Ac(a2-8)Neu5Ac(a2-8)Neu5Ac(a2-3)[GalNAc(b1-4)]Gal(b1-4)Glc
Procedure, shortened: as §1

[22] = target: Neu5Ac(a2-8)Neu5Ac(a2-8)Neu5Ac(a2-8)Neu5Ac(a2-3)[GalNAc(b1-4)]Gal(b1-4)Glc
Procedure, shortened: as §1

[23] = target: Neu5Ac(b1-6)GalNAc
Procedure, shortened: as §1

[24] = target: Neu5Ac(b2-6)Gal(b1-4)GlcNAc
Procedure, shortened: as §1

[25] = target: Neu5Ac(b2-6)GalNAc
Procedure, shortened: as §1

[26] = target: Neu5Ac9Ac(a2-6)Gal(b1-4)GlcNAc
Procedure, shortened: as §1

[27] = target: Neu5Gc(a2-3)Gal(b1-3)GlcNAc
Procedure, shortened: as §1

[28] = target: Neu5Gc(a2-3)Gal(b1-3)[Fuc(a1-4)]GlcNAc
Procedure, shortened: as §1

[29] = target: Neu5Gc(a2-3)Gal(b1-4)Glc
Procedure, shortened: as §1

[30] = target: Neu5Gc(a2-3)Gal(b1-4)GlcNAc
Procedure, shortened: as §1

[31] = target: Neu5Gc(a2-3)Gal(b1-4)[Fuc(a1-3)]GlcNAc
Procedure, shortened: as §1

[32] = target: Neu5Gc(a2-6)Gal(b1-4)GlcNAc
Procedure, shortened: as §1

[33] = target: Neu5Gc(a2-6)GalNAc
Procedure, shortened: as §1

[34] = target: Neu5Gc(b2-6)Gal(b1-4)GlcNAc
Procedure, shortened: as §1

B1: L-Selectin (Mus musculus), P18337 (protein)
chain: MVFPWRCEGTYWGSRNILKLWVWTLLCCDFLIHHGTHCWTYHYSEKPMNWENARKFCKQNYTDLVAIQNKREIEYLENTLPKSPYYYWIGIRKIGKMWTWVGTNKTLTKEAENWGAGEPNNKKSKEDCVEIYIKRERDSGKWNDDACHKRKAALCYTASCQPGSCNGRGECVETINNHTCICDAGYYGPQCQYVVQCEPLEAPELGTMDCIHPLGNFSFQSKCAFNCSEGRELLGTAETQCGASGNWSSPEPICQVVQCEPLEAPELGTMDCIHPLGNFSFQSKCAFNCSEGRELLGTAETQCGASGNWSSPEPICQETNRSFSKIKEGDYNPLFIPVAVMVTAFSGLAFLIWLARRLKKGKKSQERMDDPY
- glycan array binding signal (z-score) [1]: 0.295
- glycan array binding signal (z-score) [2]: -0.314
- glycan array binding signal (z-score) [3]: -0.214
- glycan array binding signal (z-score) [4]: -0.213
- glycan array binding signal (z-score) [5]: -0.056
- glycan array binding signal (z-score) [6]: 0.31
- glycan array binding signal (z-score) [7]: -0.454
- glycan array binding signal (z-score) [8]: -0.115
- glycan array binding signal (z-score) [9]: -0.363
- glycan array binding signal (z-score) [10]: -0.236
- glycan array binding signal (z-score) [11]: -0.289
- glycan array binding signal (z-score) [12]: -0.252
- glycan array binding signal (z-score) [13]: 0.174
- glycan array binding signal (z-score) [14]: -0.12
- glycan array binding signal (z-score) [15]: -0.452
- glycan array binding signal (z-score) [16]: -0.017
- glycan array binding signal (z-score) [17]: -0.335
- glycan array binding signal (z-score) [18]: -0.36
- glycan array binding signal (z-score) [19]: -0.493
- glycan array binding signal (z-score) [20]: -0.536
- glycan array binding signal (z-score) [21]: -0.235
- glycan array binding signal (z-score) [22]: -0.554
- glycan array binding signal (z-score) [23]: -0.43
- glycan array binding signal (z-score) [24]: -0.348
- glycan array binding signal (z-score) [25]: -0.495
- glycan array binding signal (z-score) [26]: -0.195
- glycan array binding signal (z-score) [27]: -0.325
- glycan array binding signal (z-score) [28]: 2.91
- glycan array binding signal (z-score) [29]: -0.088
- glycan array binding signal (z-score) [30]: 0.201
- glycan array binding signal (z-score) [31]: 0.549
- glycan array binding signal (z-score) [32]: -0.316
- glycan array binding signal (z-score) [33]: -0.383
- glycan array binding signal (z-score) [34]: -0.276
